Laboratory results as given in ChEMBL document CHEMBL4888484, “Replenishing the malaria drug discovery pipeline: Screening and hit evaluation of the MMV Hit Generation Library 1 (HGL1) against asexual blood stage Plasmodium falciparum ,using a nano luciferase reporter read-out” (2022).
Screen size: about 4,800 compounds; about 410 (8.5%) showed an effect of 50% or more. The list shows a part of the results.

Test system: Plasmodium falciparum
Assay: Confirmatory screen in NF54 pLDH assay, in single point, at 2uM, 72h
Assay type: functional, Erythrocyte
Conditions: timepoint 72 hour

Going from `CC(Cc1ccccc1)NC1CN2CCC1CC2` (stereo unspecified) to `Cc1ccc(C(O)(c2ccc(C)c(C)c2)[C@H]2C[N@]3CC[C@@H]2CC3)cc1C`, the “% Inhibition” value falls from 13% to 11%.

Going from `COc1cccc(CNC(=O)N2CC[C@@H]3CCN(C)C[C@@H]32)n1` to `O=C1CO[C@H]2CCN(Cc3cn4ccc(Br)cc4n3)C[C@@H]2N1`, the “% Inhibition” value rises from 7% to 8%.

Compared with `COC(=O)CNc1cc(C)c([C@@](O)(C(=O)OC)C(F)(F)F)cc1OC`, `COC(=O)C(O)(c1ccc2c(c1)C(O)(C(F)(F)F)C(=O)N2C(C)C)C(F)(F)F` (stereo unspecified) is higher in “% Inhibition” value: 6% for the first, 7% for the second.

Compared with `C[N+]12CCC(CC1)[C@@H](C(O)(c1cccc(Cl)c1)c1cccc(Cl)c1)C2`, `CN1CCN(CCO[C@@H](c2cccc(Cl)c2)c2ccccc2Cl)CC1` is lower in “% Inhibition” value: 25% for the first, 9% for the second.

First: CN(C)[C@@H](Cn1c(=O)[nH]c2ccccc2c1=O)c1ccco1
Second: CCN(CC)CCC1C(=O)N(c2ccccc2)C(=O)N(c2ccccc2)C1=O
The “% Inhibition” value of the first is lower: -13% for the first, 8% for the second.

Compared with `O=C(NCc1ccc(Br)cn1)[C@H]1NCC12CCCC2`, `CN1CCC2(CC1)CNc1ccccc12` is lower in “% Inhibition” value: 4% for the first, 0% for the second.

Compared with `COc1cc(OCC(=O)N2CCN([C@@H](C)Cc3ccccc3)CC2)cc(OC)c1OC`, `CCCC(=O)N(C1=CC2CCC(C1)N2C)c1ccccc1` (stereo unspecified) is higher in “% Inhibition” value: 3% for the first, 8% for the second.

First: O=C1N(c2ccccc2)C(=O)C2(Cc3cc(C(F)(F)F)ccc3N3CCC(c4ccccc4)CC32)C(=O)N1c1ccccc1 (stereo unspecified)
Second: C[C@@H]1N=C(c2ccccc2)c2cc(Cl)ccc2N(CC(=O)Nc2cccc(C(F)(F)F)c2)C1=O
The “% Inhibition” value of the first is lower: 4% for the first, 11% for the second.

First: Clc1cccc(CCN[C@H]2CCOC3(CCOCC3)C2)c1
Second: C=CC1CN2CCC1CC2C12Nc3ccccc3C1(O)CCO2 (stereo unspecified)
The “% Inhibition” value of the first is higher: 10% for the first, -15% for the second.

Going from `CCCCC1(CCCC)C(=O)NC(=Nc2ccc(C)cc2)NC1=O` to `Cc1ccc(C2CC(c3cccnc3)Nc3ncnn32)cc1` (stereo unspecified), the “% Inhibition” value rises from -20% to 7%.

Going from `O=c1[nH]c2cc(NS(=O)(=O)c3ccc(C4CCCCC4)cc3)ccc2o1` to `O=C(c1ccccc1)c1cc(Cl)ccc1NC(=O)[C@H]1CC(=O)N(c2ccc(F)cc2)C1`, the “% Inhibition” value rises from -14% to 96%.

Going from `CCN1CCC[C@H](NC(C2CCC2)C2CCC2)C1` to `Cn1cc(/C=C2\CC3C4CCC5CCCCC5(C)C4CCC3(C)C2O)cn1` (stereo unspecified), the “% Inhibition” value falls from 10% to 6%.

Compared with `CCC(CC)c1cc([C@H]2CN3CC[C@H]2C[C@@H]3CNS(=O)(=O)Cc2ccccc2)nc(-c2ccncc2)n1`, `CCN(CC)C(=O)Oc1cc2nnnn2nc1-c1ccccc1` is lower in “% Inhibition” value: 60% for the first, 6% for the second.

Compared with `C[C@@H](Cc1ccc(O)cc1)NCc1cc[nH]n1`, `CCOc1ccccc1NC(=O)c1cn(Cc2ccc(N)cc2)cn1` is lower in “% Inhibition” value: 12% for the first, 6% for the second.

First: COc1snc(C(Cl)(Cl)Cl)c1Cl
Second: CCn1cnc2c(N3C4CCC3C(C(=O)OC(C)(C)C)C4)ncnc21 (stereo unspecified)
The “% Inhibition” value of the first is higher: 0% for the first, -8% for the second.

For `O=C(NCc1cc(F)cc(F)c1)c1cn(Cc2ccc(F)cc2)nn1`, the “% Inhibition” value was -22%.
